According to PubChem BioAssay AID1745853 (National Center for Advancing Translational Sciences (NCATS), 2022):
Values joined by “and” are separate entries in the source; they are usually repeats but may differ in a detail not shown here. Equal values may be shown once. This is one part of the list. Further columns of the screen follow, without active or inactive calls.

Columns and labels:
Test in all cases: Primary Screen for Target Class Profiling of Small Molecule Inhibitors of Methyltransferases
[1] = molecular target: Glycine N-methyltransferase (Homo sapiens) (UniProt Q14749); details: purified enzyme, MTase-Glo SAH luminescence; measured here: GNMT inhibition; at 40 µM; stronger effect = lower value
Summary of the method: (§1)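 Each enzyme was reacted with SAM and its substrate, with compounds tested once at 40 uM; SAH formed was read by MTase-Glo luminescence.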

[2] = molecular target: Guanidinoacetate N-methyltransferase (Homo sapiens) (UniProt Q14353); details: purified enzyme, MTase-Glo SAH luminescence; measured here: GAMT inhibition; at 40 µM; stronger effect = lower value
Summary of the method: as §1

[3] = molecular target: Histamine N-methyltransferase (Homo sapiens) (UniProt P50135); details: purified enzyme, MTase-Glo SAH luminescence; measured here: HNMT inhibition; at 40 µM; stronger effect = lower value
Summary of the method: as §1

[4] = molecular target: Nicotinamide N-methyltransferase (Homo sapiens) (UniProt P40261); details: purified enzyme, MTase-Glo SAH luminescence; measured here: NNMT inhibition; at 40 µM; stronger effect = lower value
Summary of the method: as §1

[5] = molecular target: Phenylethanolamine N-methyltransferase (Homo sapiens) (UniProt P11086); details: purified enzyme, MTase-Glo SAH luminescence; measured here: PNMT inhibition; at 40 µM; stronger effect = lower value
Summary of the method: as §1
% is set by controls: 0 for no effect and ±100 for the full control effect.

| Structure (SMILES) | activity change, negative = inhibition [1] | activity change, negative = inhibition [2] | activity change, negative = inhibition [3] | activity change, negative = inhibition [4] | activity change, negative = inhibition [5] |
| --- | --- | --- | --- | --- | --- |
| CC(C)C1=CCC(C)(O)C(OC2OC(CO)C(O)C(O)C2O)C1 (stereo not drawn) | 0% | 5.78% | 9.81% | -6.68% | 5.09% |
| COc1ccccc1CNC(=O)C1c2c(n(C)c3ccccc23)SCC(=O)N1c1ccc(OC)c(OC)c1 (stereo not drawn) | 11.4% | 2.23% | 7.77% | 4.37% | 9.3% |
| CC(C)Oc1ccc(-c2cnc3c(-c4ccnc5ccccc45)cnn3c2)cc1 | -11.3% | -1.18% | 9.64% | -19.3% | -2.76% |
| CCn1nc(C)c(-c2cc(C(=O)N3CCC(CCOc4ccccc4OC)C3)no2)c1C (stereo not drawn) | -13.1% | -8.58% | -9.27% | -16% | -0.415% |
| O=C(CCn1ccc2cc(S(=O)(=O)N3CCCC3)ccc21)NCCc1ccc(Cl)cc1 | 0.551% | 0% | 5.98% | -0.9% | 1.59% |
| c1ccc2c(CCNc3ccc(Nc4ccncc4)cc3)c[nH]c2c1 | -7.83% | 4.73% | -92.4% | -32.2% | -6.89% |
| CNC(=O)[C@@H]1CN(S(=O)(=O)C(C)C)C[C@H]1c1n[nH]c(C)n1 | 0.916% | 2.02% | 1.56% | -2.11% | 2.87% |
| COc1ccc(Cl)cc1NC(=O)CSc1nnc2n(CCC(C)C)c(=O)c3ccccc3n12 | 0.306% | 1.61% | 4.97% | -8.71% | -1.14% |
| Cc1ccc(N2C(=O)CSc3c(c4ccccc4n3C)C2C(=O)NCc2ccccc2)cc1C (stereo not drawn) | 5.83% | 1.24% | -1.88% | -1.07% | 0.411% |
| COc1ccccc1CN1C(=O)c2nc3ccccc3n2CC1(C)C(=O)NC1CCCCC1 (stereo not drawn) | 1.42% | 4.23% | -0.498% | -2.76% | -2.25% |
| COc1cccc(CN2C(=O)c3cc4sccc4n3CC2(C)C(=O)NC2CCCC2)c1OC (stereo not drawn) | -6.13% | 5.42% | -6.05% | -4.64% | -3.23% |
| NCCCCCC(=O)O | 4.46% | -5.59% | 7.19% | -10.3% | -5.18% |
| CC(C)OCCCn1c(=O)c2ccccc2n2c(CCC(=O)NC(C)c3ccccc3)nnc12 (stereo not drawn) | 0.666% | 0% | 2.97% | 12.6% | 1.71% |
| CC(C)CCNC(=O)[C@H](CC(C)C)NC(=O)[C@H]1O[C@@H]1C(=O)O | -1.86% | -8.3% | 8.59% | -12.4% | 1.17% |
| Cc1ncsc1C(=O)N1CC(CNC(=O)C2CC2)C2(C1)CN(c1ccccc1)C2 (stereo not drawn) | -4.29% | -0.584% | 1.76% | -3.32% | 1.71% |
| CC1(C(=O)NC2CCCCCC2)Cn2c(ccc2-c2ccccc2)C(=O)N1Cc1ccc(F)cc1 (stereo not drawn) | 3.88% | 3.34% | 0.137% | -4.86% | -0.852% |

| Structure (SMILES) | activity change, negative = inhibition [1] | activity change, negative = inhibition [2] | activity change, negative = inhibition [3] | activity change, negative = inhibition [4] | activity change, negative = inhibition [5] |
| --- | --- | --- | --- | --- | --- |
| O=C(Cn1ncc2c1-c1ccccc1OC2)N1CCN(c2ccccc2)CC1 |  | -2.26% |  | -9.01% | 0.901% |
| O=c1c2ccccc2n2c(-c3ccc(F)cc3)nnc2n1Cc1ccccc1 | -3.28% | 3.65% | -4.65% | -0.735% | -4.9% |
| COc1ccc2c(Oc3ccc(NC(=O)c4c(C)n(CC(C)(C)O)n(-c5ccccc5)c4=O)nc3)ccnc2c1 | -10.9% | -5.65% | -29.7% | -43.9% | -2.38% |
| Cc1cc(C(C)Nc2ccccc2C(=O)O)c2nc(N3CCOCC3)cc(=O)n2c1 (stereo not drawn) | -5.79% | -4.02% | 6.92% | -17.1% | 0.433% |
| Cc1ccc(S(=O)(=O)c2nnn3c2nc(NCCCOC(C)C)c2ccccc23)cc1C | -3.26% | 4.57% | 4.95% | 3.46% | -1.6% |
| Cc1ccc2c(c1)C(=O)[C@]1(O)CCN(c3ccccc3)C1=N2 | -2.71% | -0.376% | 6.98% | -11.8% | -6.77% |
| CC1CCCCC1NC(=O)C1(C)Cn2c(cc3sccc32)C(=O)N1Cc1ccccc1 (stereo not drawn) | -5.91% | 4.19% | -2.56% | -6.59% | -5.04% |
| Cc1ccc(C)c2c1NC(c1ccc(Br)cc1)C1CC=CC21 (stereo not drawn) | -9.11% | 1.65% | -5.69% | -14.2% | -5.84% |
| O=c1[nH]c2ccc(S(=O)(=O)NCCc3ccc(Cl)cc3)cc2[nH]1 | -1.43% | 4.14% | -0.91% | -7.79% | -8.61% |
| COc1ccc(CCNC(=O)C(C)n2ccc3cc(S(=O)(=O)N4CCCC4)ccc32)cc1OC (stereo not drawn) | 4.48% | 1.84% | 0.742% | 4.33% | 1.77% |
| C[C@H](C(=O)NCCN1CCOCC1)C1CC[C@@]2(C)Cc3sc(CS(=O)(=O)C(C)(C)C)nc3[C@@H](C)[C@@H]2[C@H]1O (stereo partly drawn) | -5.88% | -6.32% | -6.9% | -15.5% | -15.4% |
| COc1ccc(Cl)c(Nc2nc3ccccc3nc2NS(=O)(=O)c2cccc(NC(=O)C(C)(C)N)c2)c1 | -19.5% | -5.73% | -10.6% | -19% | -19.2% |
| COc1cccc(N2CCN(C(=O)CCc3nnc4n(Cc5ccccc5)c(=O)c5ccccc5n34)CC2)c1 | -10.5% | 4.19% | -1.84% | -8.63% | -9.66% |
| COc1ccccc1CNC(=O)C1(C)Cn2nc(-c3ccccc3)cc2C(=O)N1Cc1ccccc1 (stereo not drawn) | 0.861% | 2.41% | 5.25% | 4.08% | 0.65% |
| CCCNC(=O)NS(=O)(=O)c1ccc(Cl)cc1 | -0.426% and -6.74% | -2.3% and 4.37% | 6.17% and -0.349% | -10.7% and -1.54% | 0.857% and 11% |
